Assay results as given in PubChem BioAssay AID463173 (ICCB-Longwood Screening Facility, Harvard Medical School, 2010).
The campaign covered roughly 52,000 compounds. About 1,700 (3.3%) were called active. Cut-off read from the data, not from the text of the source: active = survival mostly below about 52% (no sharp cut-off); inactive = mostly above about 56%. This is one part of the list.

The compounds below were run on Wild type (assay: S. aureus survival, RN4220 and DeltatarO strains – OD600, teichoic acid synthesis inhibitors, primary screen (AID 463173)). Conditions: S. aureus RN4220 wild type/DeltatarO growth, OD600, 18 h, stronger effect = lower value, screened at 18.75 µg/mL (by protocol).
CCCc1nnc(NC(=O)Nc2ccccc2Cl)s1 was tested, and the survival was inactive: 120%. In the case of CCOC(Cn1ccc(=O)[nH]c1=O)OCC, the survival was inactive: 108%. With S=C(c1ccncc1)N1CCOCC1 the survival was inactive: 106%. For Cc1nn(C(=O)c2c(F)cccc2F)c(C)c1S(=O)(=O)N1CCCCCC1, the survival was inactive: 82%. With CCn1c(CN2CCOCC2)nc2cc(NC(=O)c3cccc([N+](=O)[O-])c3)ccc21 the survival was inactive: 82%. COc1ccc(N=Nc2c(N)n[nH]c2N)cc1 was tested, and the survival was active: 2%. For Cc1c(CCC(=O)O)c(=O)[nH]c2ccccc12, the survival was inactive: 116%. COc1ccc(NC(=O)Cn2cc(C(=O)c3ccccc3OC)c(=O)c3ccc(C)nc32)cc1OC was tested, and the survival was inactive: 85%. For Cc1ccc(CN2CCC(CNC(=O)Nc3ccc(C)c(C)c3)C2)cc1 (stereo unspecified), the survival was inactive: 94%. O=C(CN1C(=O)C2C3C=CC(C3)C2C1=O)NCc1ccco1 (stereo unspecified) was tested, and the survival was inactive: 108%. For CC(=O)Nc1nnc2n1CCS2, the survival was inactive: 54%. With COc1ccc(C)cc1NC(=O)c1nnn(-c2c(C)cccc2C)c1C the survival was inactive: 93%. For CCOC(=O)c1ccc(N2CCN(c3cc(C)ccc3C)CC2)c(NC(=O)Nc2ccc(Cl)cc2)c1, the survival was inactive: 56%. Cc1ccc(C)c(NC(=O)/C(C#N)=C/c2ccc(C(C)C)cc2)c1 was tested, and the survival was inactive: 77%. For COc1ccc(C)cc1NC(=O)c1oc2ccc(S(=O)(=O)N3CCC4(CC3)OCCO4)cc2c1C, the survival was inactive: 86%. In the case of CCOc1ccc(C2C(C(=O)Nc3ccccc3C)=C(C)Nc3nnnn32)cc1 (stereo unspecified), the survival was inactive: 63%. In the case of CC(C)N(C(=O)Cn1cc(SCC(=O)Nc2ccccc2C(F)(F)F)c2ccccc21)C(C)C, the survival was inactive: 105%. For Cc1ccc(-c2nc(CCNC(=O)C(=O)Nc3c(C)cccc3C)cs2)cc1, the survival was active: 0%. With COc1cc(NC(=O)CN2Cc3ccccc3C2=O)cc(OC)c1OC the survival was inactive: 73%. COC(=O)c1[nH]c2ccc(F)cc2c1N was tested, and the survival was inactive: 113%. For COc1ccccc1/C=C/c1nc(C#N)c(NCC(C)C)o1, the survival was inactive: 65%. In the case of CC1=[N+](CCO)c2ccccc2C1(C)C, the survival was inactive: 110%. For CCOCCn1cnc2sc(C(=O)Nc3ccccc3C(=O)OC)c(C)c2c1=O, the survival was inactive: 131%. For CCOc1ccc(NC(=O)Cn2nc(Cc3ccncc3)c3ccccc3c2=O)cc1, the survival was inactive: 108%. COc1ccc(N2C(=O)CSC23C(=O)N(Cc2ccc(C)cc2)c2ccccc23)cc1Cl (stereo unspecified) was tested, and the survival was inactive: 135%. With CCOc1cccc(CC(=O)N2CCc3c([nH]c4ccccc34)C2c2ccc(SC)cc2)c1OCC (stereo unspecified) the survival was inactive: 133%. With CC(C)Cn1c(=O)c2ccccc2n2c(CCC(=O)Nc3ccc(F)cc3)nnc12 the survival was inactive: 84%. In the case of CCCN(CCC)C(=O)c1nn(C)c2c1CSc1ccc(C)cc1-2, the survival was inactive: 83%. With COc1ccc(-n2ccnc(NCc3ccccc3Cl)c2=O)cc1OC the survival was inactive: 71%. For CCOC(=O)c1cc(-c2ccccc2)n(CCCC(=O)Nc2ccccc2C)c1C, the survival was inactive: 97%. COc1ccc(C(=O)c2oc3ccccc3c2NC(=O)c2cccc(OC)c2)cc1 was tested, and the survival was inactive: 79%. With COc1ccc(CNC(=O)c2sc3nc4n(c(=O)c3c2C)CCCCC4)cc1 the survival was inactive: 86%. In the case of Clc1cccc(C2=NC(c3cccs3)=Nc3ccc(Br)cc3N2)c1, the survival was inactive: 79%. For CCc1ccc(NC(=O)CN2C(=O)c3ccccc3Sc3ccc(C(=O)N4CCCC4)cc32)cc1, the survival was inactive: 82%. With Cc1nc(-c2ccc(S(=O)(=O)Nc3ccc(Cl)c(C(F)(F)F)c3)cc2)co1 the survival was inactive: 66%. CCN(CC)CCOC(=O)c1ccc(NC(=O)c2cc3c(s2)-c2ccccc2OC3)cc1 was tested, and the survival was active: 5%. With Cc1ccc2nc(COc3cccc(NC(=O)c4ccccc4Cl)c3)cc(=O)n2c1 the survival was inactive: 78%. With CCOc1ccccc1CNC(=O)c1cnc2sc(N(CC)CC)nn2c1=O the survival was inactive: 71%. For CC(C)CN(CCNC(=O)c1cc(-c2cccs2)nc2ccccc12)CC(C)C, the survival was inactive: 68%. CCN(CC)CCOC(=O)c1ccc(Nc2c3c(nc4ccccc24)CCC3)cc1 was tested, and the survival was inactive: 79%. COc1ccc(CNC(=O)C(CC(C)C)N2Cc3ccccc3C2=O)cc1 (stereo unspecified) was tested, and the survival was inactive: 134%. With CCOc1ccc(N(C)C(=O)c2oc(=O)c3ccccc3c2-c2ccccc2)cc1 the survival was inactive: 56%. CCc1ccc(-c2nc(CS(=O)CC(=O)NCCc3ccc(C)cc3)c(C)o2)cc1 (stereo unspecified) was tested, and the survival was inactive: 85%. CC(OC(=O)CN1C(=O)COc2ccccc21)C(=O)NCc1cccs1 (stereo unspecified) was tested, and the survival was inactive: 100%. With CC(C)c1cnc2c(c1SCC(=O)NC(C)(C)C)c(=O)n(C)c(=O)n2C the survival was inactive: 80%. For Cc1ccc(N(CC(=O)N2CCN(c3cc(C)ccc3C)CC2)S(=O)(=O)c2c(C)nn(C)c2C)cc1, the survival was inactive: 72%. In the case of Cc1ccc(-c2nnc(N3CCOCC3)c3ccccc23)cc1S(=O)(=O)NCC1CCCO1 (stereo unspecified), the survival was inactive: 103%. CCn1cc2c(n1)-c1c(oc(C(=O)Nc3ccc(Br)cc3F)c1C)CC2 was tested, and the survival was inactive: 86%. O=C(O)CC1c2ccccc2CCN1C(=O)Nc1cc(Cl)ccc1Cl (stereo unspecified) was tested, and the survival was inactive: 78%. In the case of Cc1ccc(CN(C(=O)c2ccc(OCC(C)C)cc2)c2ccccn2)o1, the survival was inactive: 112%. In the case of CCOC(=O)c1noc2nc(C)n(CC(=O)Nc3cccc(OC)c3)c(=O)c12, the survival was inactive: 120%. With CCCCC1CCC(C(=O)N2CC(=O)Nc3ccc(Br)cc3C2c2ccc(F)cc2)CC1 (stereo unspecified) the survival was inactive: 90%. For COC(=O)COc1ccc(-c2nnc(Nc3ccc(O)cc3)c3ccccc23)cc1, the survival was inactive: 138%. With Cc1cc(Cl)ccc1-n1c(CCC(=O)O)ccc1-c1cccs1 the survival was inactive: 79%. For CCc1c(C)c2ccc(O)c(CN3CCN(c4cc(Cl)ccc4C)CC3)c2oc1=O, the survival was inactive: 80%. Cc1cccc2c1-c1sc(C(=O)Nc3ccc(F)cc3F)cc1CO2 was tested, and the survival was inactive: 91%. For CCc1ccc(S(=O)(=O)c2nnn3c2nc(N2CCN(c4ccccc4)CC2)c2cc(Cl)ccc23)cc1, the survival was inactive: 97%. With CCC(=O)OCc1cc(=O)n2nc(C3CC3)sc2n1 the survival was inactive: 78%. Cc1ccc(NC(=O)CN2C(=O)COc3ccc(S(=O)(=O)N4CCCCCC4)cc32)c(C)c1 was tested, and the survival was inactive: 99%. In the case of Cc1ccc(CNC(=O)C(=O)Nc2c3c(nn2-c2ccc(F)cc2)CSC3)cc1, the survival was inactive: 64%. Cc1ccc(CNC(=O)c2ccc(N3CCCC3)c(NC(=O)Nc3ccc(C)cc3)c2)cc1 was tested, and the survival was inactive: 75%. With CCOC(=O)c1cccc(NC(=O)N2CCOCC2)c1 the survival was inactive: 111%. In the case of CCN(CC)C(=O)Cn1c(=O)n(CCCCCC(=O)NCc2ccc3c(c2)OCO3)c(=O)c2sccc21, the survival was inactive: 134%. With O=c1c2sc3ccccc3c2n(Cc2cccc(F)c2)c(=O)n1CCc1ccccc1 the survival was inactive: 80%. In the case of O=C(Cn1c(=O)oc2ccccc21)N1CCCCC1, the survival was inactive: 102%. Cn1cnnc1SCC(N)=O was tested, and the survival was inactive: 102%. In the case of CN(C(=O)Cn1nc(Cc2cccnc2)c2ccccc2c1=O)c1cccc(C(F)(F)F)c1, the survival was inactive: 75%. CCCc1cc(=O)oc2c3c(ccc12)OCN(Cc1ccccc1OC)C3 was tested, and the survival was inactive: 135%. With Cc1cc(C)cc(OCC(=O)Nc2cccc3cccnc23)c1 the survival was inactive: 76%. COC(=O)c1ccccc1NC(=O)[C@H]1O[C@@H]2OC(C)(C)O[C@@H]2[C@H]2OC(C)(C)O[C@H]21 was tested, and the survival was inactive: 100%. For CCOC(=O)c1ccc(N2C(=O)c3n[nH]c(-c4ccco4)c3C2c2ccc(C(=O)OC)cc2)cc1 (stereo unspecified), the survival was inactive: 85%. O=C(c1ccc2c(c1)N(Cc1ccc(Cl)cc1)C(=O)c1ccccc1S2(=O)=O)N1CCCC1 was tested, and the survival was inactive: 95%. In the case of CCCCCCC(=O)Nc1ccc2nc3c(=O)n(C)c(=O)n(C)c3nc2c1C, the survival was inactive: 86%. For CCCc1cnc2c(c1SCC(=O)NCc1ccc(C)cc1)c(=O)n(C)c(=O)n2C, the survival was active: -6%. For CCCCOc1ccccc1C1CC(=O)Nc2ccc3ccccc3c21 (stereo unspecified), the survival was inactive: 96%. Cc1ccc(C(=O)N2CCN(c3ccccc3)CC2)cc1 was tested, and the survival was inactive: 112%. CC(C)c1ccc(S(=O)(=O)N2CCN(Cc3cccc(F)c3)CC2)cc1 was tested, and the survival was inactive: 133%. In the case of COc1ccccc1CCNC(=O)Cc1c(C)c2cc(Cl)c(O)cc2oc1=O, the survival was inactive: 76%. COc1ccc(C)c2sc(NC(=O)c3ccc(S(=O)(=O)N(C)C)cc3)nc12 was tested, and the survival was inactive: 81%. With CCOc1ccc(CNC(=O)c2oc3c(c2C)-c2nn(Cc4cccc(Cl)c4)cc2CC3)cc1 the survival was inactive: 82%. For CCOC(=O)C1CCN(C(=O)c2cc3sc(C)cc3n2C)CC1, the survival was inactive: 89%. CCCCN(CC)C(=O)CSc1nc2n[nH]c(C)c2c(=N)n1-c1ccc(CC)cc1 was tested, and the survival was inactive: 120%. With CCOc1ccc(-c2cccc(NS(=O)(=O)c3ccc(C)s3)c2)nn1 the survival was inactive: 89%. For O=C(CN1C(=O)C2CCc3[nH]c4ccccc4c3C2C1=O)N1CCCC1 (stereo unspecified), the survival was inactive: 110%. For COCCCn1c(=O)c2sccc2n2c(CCCC(=O)NCc3cccc(OC)c3)nnc12, the survival was inactive: 98%. In the case of COc1ccc(NC(=O)CSc2ncc3c(n2)-c2ccccc2N(Cc2ccc(C)cc2)S3(=O)=O)cc1Cl, the survival was inactive: 134%. For Cc1ccc(N(C)C(=O)c2sc3nc4n(c(=O)c3c2C)CCCC4)cc1C, the survival was inactive: 78%. For CCOC(=O)C1CCC(CN(Cc2ccc(Cl)cc2)S(=O)(=O)c2cccc(Cl)c2C)CC1 (stereo unspecified), the survival was inactive: 82%. With Cc1nc2nc(NC(=O)c3ccc(C(C)(C)C)cc3)[nH]n2c(=O)c1C the survival was inactive: 87%. With CCCCOc1ccc(C(=O)Nc2ccc3c(c2)CCCN3C(=O)c2cccs2)cc1 the survival was inactive: 84%. In the case of CCN1C(=O)c2ccccc2S(=O)(=O)c2ccc(C(=O)NCc3ccccc3)cc21, the survival was inactive: 84%.
